# PubChem BioAssay AID1460 (National Center for Advancing Translational Sciences (NCATS), 2008)
# Where “and” joins values, the source holds several entries; their conditions need not be identical. Identical values can stand only once. The campaign covered roughly 270,000 compounds. About 5,800 (2.1%) were called active. Inconclusive results, whose numbers are uncertain, are shown with a selection of clear calls. Calls follow the shape of the dose curve; as a rule, active = well fitted inhibition curve with a large enough effect; inconclusive = small, poorly fitted or top-dose-only effect; inactive = flat fitted curve, though single readings scatter. Potencies of inconclusive entries are doubtful fits and often do not repeat.
# Biological target: Microtubule-associated protein tau (Homo sapiens) (UniProt P10636)
# Experiment: qHTS for Inhibitors of Tau Fibril Formation, Thioflavin T Binding; also: nearly all actives have a fitted effect of over 55% in size
# Conditions: recombinant tau K18 P301L (four-repeat tau fragment), heparin-induced fibrillization, ThT fluorescence; series mostly up to 57.4 µM
# Outline: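 In this qHTS, human K18 P301L tau is incubated with compound and heparin for 6 hr at 37 C, and Thioflavin T fluorescence then reports fibril load.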
# % is scaled to controls: 0 for no effect and ±100 for the full control effect; potency is read from the fitted curve at half-maximal effect; tags tell the direction and shape of the fitted curve.
# Chain of UniProt P10636 (P10636 whole entry, looked up): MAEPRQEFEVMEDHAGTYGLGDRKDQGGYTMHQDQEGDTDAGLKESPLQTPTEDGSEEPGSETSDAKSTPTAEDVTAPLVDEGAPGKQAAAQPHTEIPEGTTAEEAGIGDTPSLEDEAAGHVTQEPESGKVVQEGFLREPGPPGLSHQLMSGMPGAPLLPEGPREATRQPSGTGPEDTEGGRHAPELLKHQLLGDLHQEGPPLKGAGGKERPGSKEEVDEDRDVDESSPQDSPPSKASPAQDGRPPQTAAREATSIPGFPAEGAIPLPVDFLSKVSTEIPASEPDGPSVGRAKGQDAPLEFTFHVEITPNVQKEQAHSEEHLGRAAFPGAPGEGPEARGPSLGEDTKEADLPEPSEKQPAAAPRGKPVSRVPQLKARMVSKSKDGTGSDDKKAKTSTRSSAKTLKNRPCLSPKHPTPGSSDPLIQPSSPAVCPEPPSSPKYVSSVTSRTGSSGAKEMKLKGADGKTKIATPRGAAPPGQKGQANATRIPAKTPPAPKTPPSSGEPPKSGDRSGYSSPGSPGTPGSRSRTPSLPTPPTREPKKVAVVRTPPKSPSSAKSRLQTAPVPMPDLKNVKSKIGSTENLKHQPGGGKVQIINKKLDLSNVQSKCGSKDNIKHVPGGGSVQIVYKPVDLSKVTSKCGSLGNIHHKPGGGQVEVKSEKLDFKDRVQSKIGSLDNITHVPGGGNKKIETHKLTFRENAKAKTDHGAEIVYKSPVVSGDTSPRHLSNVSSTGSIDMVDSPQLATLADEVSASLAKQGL
Structure (SMILES),Potency,"activity, negative = inhibition"
COc1ccc(Nc2nc(-c3ccccc3F)nc3ccccc23)cc1OC,"inconclusive: 11.2 µM [inhibitor, partial curve, poor fit]",
Cc1ccc(OC(=O)c2cc3ccccc3o2)cc1,"inconclusive: 17.8 µM [inhibitor, partial curve]",
COC(=O)c1ccccc1OCCOc1ccccc1C(=O)OC,inactive,
c1ccc(-c2nc(-c3ccccn3)no2)cc1,inactive,
CC1=NN(c2ccccc2)C(=O)/C1=C\c1ccc(Oc2ccc([N+](=O)[O-])cc2[N+](=O)[O-])cc1,active: 14.1 µM,
COC(=O)C/C=C\[C@@H](C)[C@@H](/C=N\OC[C@@H](C)[C@H](OCc1ccccc1)C(C)C)OC,,inactive: -2.86% [at 11.5 µM]
Cc1noc(-c2ccc(-c3noc(-c4ccc(C(F)(F)F)cc4)n3)cc2)n1,inactive,
COc1ccc(NC(=O)c2sc3nc4c(cc3c2N)CN(Cc2ccccc2)CC4)cc1OC,"inconclusive: 0.447 µM [inhibitor, full curve, poor fit]",
Cc1c(C(=O)NCc2ccccc2Br)oc2ccc3c(c12)C(=O)CC(C)(C)O3,"inconclusive: 0.891 µM [inhibitor, full curve]",
O=C(Cc1ccc(Cl)cc1)Nc1ccc(-c2nnc(-c3ccco3)o2)cc1,"inconclusive: 15.8 µM [inhibitor, partial curve]",
CCCCCCC1CC(CCc2nc(=S)[nH][nH]2)C(=O)O1 (stereo not drawn),inactive,
O=C1CSC(=S)N1N1C(=O)c2cccc([N+](=O)[O-])c2C1=O,active: 12.6 µM,
COc1ccc(-c2nc(S(=O)(=O)c3ccc(C)cc3)c(NCc3ccccc3)o2)cc1,"inconclusive: 31.6 µM [inhibitor, single point]",
Cn1cc(-c2cc3n(n2)CCC(=O)N3CCCC(=O)Nc2ccccc2F)c2ccccc21,"inconclusive: 12.6 µM [inhibitor, partial curve]",
CCOc1ccccc1N1CCN(C(=O)c2ccc3[nH]c4c(c3c2)CCCC4)CC1,"inconclusive: 10 µM [inhibitor, partial curve]",
O=C1c2cccc(O)c2C(=O)c2c(O)cccc21,"inconclusive: 5.01 µM [inhibitor, full curve] and inconclusive: 11.2 µM [inhibitor, partial curve]",
CCOC(=O)c1ccc(N/C=C/C(=O)c2ccc(OC)cc2)cc1,"inconclusive: 1.58 µM [inhibitor, full curve]",
COc1ccc(OC)c(NC(=O)c2cnn(-c3ccccc3Cl)c2NC(=O)c2ccco2)c1,"inconclusive: 31.6 µM [inhibitor, partial curve, poor fit]",
CCc1ccc(NC(=O)c2ccc(F)c(S(=O)(=O)N3CCN(c4cc(C)ccc4C)CC3)c2)cc1,inactive,
Cc1noc2ncnc(N3CCCC(C(=O)Nc4cccc(C(F)(F)F)c4)C3)c12 (stereo not drawn),inactive,
O=C(CNc1cccc2ccccc12)N/N=C/c1ccccn1,"inconclusive: 15.8 µM [inhibitor, partial curve]",
O=C(CSc1nnc(-c2ccccc2)c(-c2ccccc2)n1)NCc1ccco1,inactive,

Structure (SMILES),Potency,"activity, negative = inhibition"
Cc1ccc(-c2cc(C(=O)Nc3cccnc3)c3ccccc3n2)o1,"inconclusive: 22.4 µM [inhibitor, single point]",
Cc1cccc(-c2c3c(=O)n(C)c(=O)n(C)c3c3cccnn23)c1,"inconclusive: 25.1 µM [inhibitor, partial curve]",
NC(=O)CC(NC(=O)Cc1ccc(Br)cc1)c1ccc(NCc2ccc(F)c(F)c2)c([N+](=O)[O-])c1 (stereo not drawn),"inconclusive: 12.6 µM [inhibitor, partial curve, poor fit]",
CCSc1nnc(NC(=O)c2cc(C)nc3ccccc23)s1,"inconclusive: 17.8 µM [inhibitor, partial curve]",
COc1cc2c(cc1OC)n(CC(=O)c1ccc(C)cc1)c(=O)n1nc(CCn3nc(C)cc3C)nc21,inactive,
CC(=O)Nc1nonc1-c1nnc(SCc2ccccc2Cl)n1C,inactive,
CCOc1cc(/C=N/Nc2ccccc2Cl)ccc1OCC(=O)O,"inconclusive: 28.2 µM [inhibitor, single point]",
CC1Cc2cc(C3(O)C(=O)c4ccccc4C3=O)ccc2N1 (stereo not drawn),"inconclusive: 39.8 µM [inhibitor, single point]",
c1cc(C2CCN(Cc3nc(-c4ccc5c(c4)OCO5)no3)CC2)ccn1,inactive,
CN(C)CCNC(=O)Cn1nc(N2CCN(c3ccccc3)CC2)ccc1=O,inactive,
O=C(Cc1ccc(Br)cc1)Nc1ccc(S(=O)(=O)NCC2CCCO2)cc1 (stereo not drawn),inactive,
CN1CCN(C2=Cc3ccccc3Sc3cc(F)c(F)cc32)CC1,"inconclusive: 22.4 µM [inhibitor, single point]",
COc1ccc(OC)c(NC(=O)c2cc3cc4ccc(C)cc4nc3s2)c1,"inconclusive: 1.12 µM [inhibitor, full curve, poor fit]",
N#Cc1c2n(c3c(=O)n(CC(=O)c4ccc([N+](=O)[O-])cc4)cnc13)CCCCC2,"inconclusive: 25.1 µM [inhibitor, partial curve, poor fit]",
COc1ccccc1NC(=O)Cn1nc(C)n2cccc2c1=O,"inconclusive: 11.2 µM [activator, partial curve]",
COc1cc(/C=N/NC(=O)C(=O)Nc2ccccn2)ccc1O,"inconclusive: 4.47 µM [inhibitor, full curve]",
O=C(N/N=C/c1cc(Br)cc(Br)c1O)c1cccc(N2CCCC2=O)c1,"inconclusive: 31.6 µM [inhibitor, partial curve]",
O=C(CCc1ccccc1)NNC(=O)c1ccccn1,"inconclusive: 2 µM [inhibitor, partial curve, poor fit]",
O=C(/C=C/c1ccc2c(c1)OCO2)NCCSCc1ccc(Cl)cc1Cl,"inconclusive: 10 µM [inhibitor, partial curve]",
CCc1cccc(NC(=O)CN2c3ccccc3S(=O)(=O)c3ccccc32)c1,inactive,
CC1CC(C)(C)NC(=S)N1CCCC(=O)Nc1ccccc1F (stereo not drawn),inactive,
